Laboratory results: the supplement of paper PMC4723716
Over roughly 3,600 compounds, “viability index relative to DMSO control” has its median near 0.81; the lowest 2% begin near 0.13. This is one part of the list.
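Further: 384-well serum-free SaLSSA: MitoTracker Red CMXRos staining with saponin lysis, high-content imaging, treated-well particle count divided by plate-mean count of DMSO wells.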

What follows are compounds tested on Plasmodium falciparum NF54 stage V gametocytes (assay: viability index relative to DMSO control (fraction); higher = less gametocyte killing). Conditions: 1.25 µM, incubation time: 72 h.
In the case of O=C(Nc1ccc(-c2nc3ccc(NC(=O)c4ccc(Br)cc4)cc3[nH]2)cc1)c1ccc(Br)cc1, the viability index is reported as 0.899.
With O=C(C[n+]1ccc(C=NO)cc1)NC12CC3CC(CC(C3)C1)C2 the viability index was 1.33.
CC1=C(C(=O)OC(C)C)C(c2ccccc2Cl)C2=C(CC(c3ccccc3)CC2=O)N1 (centres undefined) gave a viability index of 0.713.
Cc1ccccc1N1C(=O)N(c2ccccc2)C2CS(=O)(=O)CC21 (centres undefined) was tested, and the viability index was 1.03.
COc1ccc(C(=O)Nc2nonc2-c2ccc(OC)c(OC)c2)cc1Cl was tested, and the viability index was 0.767.
Cc1ccnc(Nc2nc(-c3ccccn3)cs2)c1 was tested, and the viability index was 0.0192.
With O=C(/C=C/c1ccc(-c2cccc([N+](=O)[O-])c2)o1)Nc1nccs1 the viability index was 0.808.
Compound CCN(CC)CCCC(C)Nc1cc(C=Cc2ccccc2Cl)nc2cc(Cl)ccc12 (centres undefined) has a viability index of 0.246.
Work on COc1cc(C=C(C#N)c2nc3ccccc3[nH]2)ccc1OCc1ccccc1 yielded a viability index of 0.815.
CC(=O)Nc1ccc(S(=O)(=O)NC2C(C)(C)C3CC[C@]2(C)C3)cc1 (some centres undefined) was tested, and the viability index was 0.772.
O=C(Nc1ccc(-n2cnnn2)cc1)C1CCN(Cc2cc3ccccc3o2)CC1 gave a viability index of 0.942.
In the case of CCOC(=O)c1c(C)[nH]c(C)c1S(=O)(=O)N1CCCC(C(=O)N2CCN(c3cccc(C)c3C)CC2)C1 (centres undefined), the viability index is reported as 0.948.
In the case of COc1ccc2nc(C)cc(Nc3cccc(O)c3)c2c1, the viability index is reported as 0.659.
Nc1c(C(=O)Nc2ccc(Br)cc2)sc2nc3c(c(-c4cccs4)c12)CCC3 gave a viability index of 0.859.
Work on N=c1c2c(n(Cc3ccc(F)cc3)c3c1CCC3)CCC2 yielded a viability index of 0.763.
CCN1C(=Cc2cccc[n+]2C)C=Cc2cc(C)ccc21 showed a viability index of 1.19.
Compound Cc1nc2cc(-c3ccc(I)cc3)nn2c(O)c1C has a viability index of 0.654.
With Brc1cccc(CNC2CCN(CCc3ccccc3)CC2)c1 the viability index was 0.971.
For Cc1ccccc1Cc1c(C)nc2c(C#N)c(C)nn2c1C, the viability index was 0.714.
With CC(=O)N(C1=C(N2CCCC2)C(=O)c2ccccc2C1=O)c1cccc(F)c1 the viability index was 1.
With COc1cncc(-c2cncc(-c3ccc(Oc4ccccc4)cc3)n2)c1 the viability index was 0.899.
CCCn1nc(Oc2nc(NCC)cc(OC)n2)ccc1=O was tested, and the viability index was 0.859.
Work on CCOC(=O)C1=C(CC)NC2=C(C(=O)CCC2)C1c1ccc(OC)c(Br)c1 (centres undefined) yielded a viability index of 0.555.
For COc1ccc(-n2c(CNC(=O)c3cccc4ccccc34)n[nH]c2=S)cc1, the viability index was 0.758.
For CC(C)(C)C1=NN(CC(=O)NCCc2c[nH]cn2)C(=O)c2cc3ccccc3n2C1, the viability index was 0.523.
In the case of CN1CCN(c2nc(NCCNc3ccc([N+](=O)[O-])cc3)c3ccccc3n2)CC1, the viability index is reported as 0.776.
With Nc1nc(N)nc(C(c2ccccc2)c2ccccc2)n1 the viability index was 1.
Cc1nc(-c2ccc[n+](C)c2)sc1C(=O)C=Cc1ccc(Cl)cc1 showed a viability index of 0.767.
Work on CCCOC(=O)C1=C(C)NC2=C(C(=O)CC(c3ccccc3)C2)C1c1ccc(Cl)cc1Cl (centres undefined) yielded a viability index of 0.604.
For CCOC(=O)c1sc(NC(=O)C(C)Sc2nnc(CNC(=O)c3ccc(OC)cc3)n2-c2ccccc2OC)c(C(=O)OCC)c1C (centres undefined), the viability index was 0.751.
S=C(NN=Cc1ccccn1)NC1CC2C=CC1C2 (centres undefined) gave a viability index of 0.0456.
In the case of COc1ccc(CCNC(=O)CN(c2ccc(OC)c(OC)c2)S(=O)(=O)c2ccc(C)cc2)cc1OC, the viability index is reported as 1.03.
With O=C(CN1CCN(C(=O)c2ccco2)CC1)Nc1cc(C(F)(F)F)ccc1Cl the viability index was 1.11.
O=C1C(N2CCCCC2)=C(N2CCCCC2)C(=O)c2ccccc21 gave a viability index of 0.839.
COC(=O)C1=C(C)NC(=Cc2cc(C)n(-c3cc(Cl)ccc3Cl)c2C)C1=O showed a viability index of 0.514.
With Cc1ccc(C(=O)CSc2nc(N)c(C#N)c(-c3cccs3)c2C#N)cc1 the viability index was 1.07.
With Cc1ccc2oc(=O)c3cnn(CC(=O)Nc4ccc(F)cc4Cl)c3c2c1 the viability index was 0.783.
For Clc1nc(Nc2ccccc2)nc(N2CCCCC2)n1, the viability index was 0.681.
In the case of CCCCOc1ccc(C(=O)Nc2cc(C)on2)cc1, the viability index is reported as 0.637.
CCc1nc2nc(C)cc(Nc3ccc(C)c(F)c3)n2n1 was tested, and the viability index was 0.785.
Compound CCOC(=O)c1cnc2c(ccc3ccccc32)c1Nc1ccc(NC(C)=O)cc1 has a viability index of 0.98.
For COc1cc(OC)cc(C(=O)NCC2Cc3cc(Cl)cc(-c4ccncc4)c3O2)c1 (centres undefined), the viability index was 1.07.
With CCOc1cc(C2CC(=O)NC3=C2C(=O)CC(C)(C)C3)ccc1OC(C)C (centres undefined) the viability index was 0.598.
Cc1ncc([N+](=O)[O-])n1CCOC(=O)NC(Nc1ccc(Br)cc1)C(Cl)(Cl)Cl (centres undefined) gave a viability index of 0.605.
Work on Cc1ccc2c(c1)c(-c1ccccc1)c(-c1ccccc1)n2CC(O)CN1CCN(Cc2ccccc2)CC1 (centres undefined) yielded a viability index of 0.535.
Cc1ccc(-n2c(-c3ccccc3)cc(C=NNC(=O)c3cccc(-n4c(C)ccc4C)c3)c2-c2ccccc2)cc1 showed a viability index of 0.83.
Work on O=C1CN(C(=O)c2cc([N+](=O)[O-])c(N3CCCCC3)c([N+](=O)[O-])c2N2CCCCC2)c2ccccc2N1 yielded a viability index of 0.591.
Compound COc1nc(Nc2ccc(C(C)C)cc2)nc(OC)n1 has a viability index of 0.964.
CNC1=C(N(Cc2ccc(Cl)c(Cl)c2)C(C)=O)C(=O)c2ccccc2C1=O gave a viability index of 0.
O=C(Nc1cc(Cl)ccc1O)c1cnn2c(C(F)(F)F)cc(-c3ccc(F)cc3)nc12 gave a viability index of 0.859.
Work on Cc1c2cnn(CC(=O)O)c(=O)c2c(C)n1Cc1cccc(Cl)c1 yielded a viability index of 1.24.
Cc1cccc(C2c3[nH]c4ccccc4c3CCN2C(=O)CCCN2CCCCC2=O)n1 (centres undefined) showed a viability index of 0.962.
Cc1cc(NC(=O)C=Cc2ccccc2Cl)ccc1Br was tested, and the viability index was 0.817.
In the case of CC1CCCN(c2ccc(C(=O)NC3CC3)cc2[N+](=O)[O-])C1 (centres undefined), the viability index is reported as 0.805.
With CCN(CC)c1ccc(N=Cc2ccccc2[N+](=O)[O-])cc1 the viability index was 0.588.
Compound CCC1(C)CC(CCNCc2ccccc2O)(c2ccccc2OC)CCO1 (centres undefined) has a viability index of 0.812.
Cc1cccc(C)c1OCC(=O)Nc1ccccc1O was tested, and the viability index was 1.01.
With O=C1C(NC2CCCC2)=C(N2CCCCC2)C(=O)c2ccccc21 the viability index was 0.236.
For OC(CN1CCOCC1)Cn1c2ccc(Br)cc2c2cc(Br)ccc21 (centres undefined), the viability index was 1.05.
Work on COc1cc(OC)cc(-n2c(=O)c3sccc3n(CC(=O)c3ccc(F)cc3)c2=O)c1 yielded a viability index of 0.964.
For N#Cc1cc(-c2cccc(C(F)(F)F)c2)cn(Cc2c(Cl)cccc2Cl)c1=O, the viability index was 0.73.
CCCCc1c(CCC)c(=N)c2ccccc2n1C was tested, and the viability index was 0.949.
For C=CCNC(=O)c1cc2c(=O)n3cccc(C)c3nc2n(CCc2ccccc2)c1=N, the viability index was 1.02.
COc1ccc(C=C2SC(=N)N(c3ccccc3OC)C2=O)cc1 showed a viability index of 0.55.
In the case of Cn1nc(C(F)(F)F)c(-c2ccc(F)cc2)c1NC(=O)Nc1ccc(F)cc1F, the viability index is reported as 1.07.
c1ccc(-c2ccccc2OCCNCCN2CCOCC2)cc1 gave a viability index of 0.644.
O=C(CSc1ccc2nnc(-c3cccs3)n2n1)Nc1ccccc1 was tested, and the viability index was 1.1.
Compound CCc1c(C)c(C#N)c2nc3ccccc3n2c1Nc1ccc(C)c(Cl)c1 has a viability index of 0.681.
For CCN(CC)CCN1C(=O)c2ccccc2NC1c1ccc(C)cc1 (centres undefined), the viability index was 0.672.
Work on Cc1ccc(O)c(NC(=O)c2cnn3c(C(F)(F)F)cc(-c4ccccc4)nc23)c1 yielded a viability index of 0.665.
For CCOC(=O)c1c(NC(C)=O)sc2c1CCN(C(C)C)C2, the viability index was 0.661.
For CN(C)c1cc[n+](CC(=O)c2ccc(Br)cc2)cc1, the viability index was 0.816.
With COCCOC(=O)C1=C(C)NC2=C(C(=O)CC(c3ccc(OC)c(OC)c3)C2)C1c1ccccc1F (centres undefined) the viability index was 0.807.
Cc1ccc(N2C(=O)C3C(C2=O)C2(c4ccccc4)C(=O)C3(c3ccccc3)C(c3ccccc3)=C2c2ccccc2)cc1[N+](=O)[O-] (centres undefined) gave a viability index of 0.839.
In the case of O=C(NCc1ccco1)c1ccc(OC2CCN(Cc3ccncc3)CC2)c(Cl)c1, the viability index is reported as 0.905.
For Cc1ccc2c(c1)N=C(c1ccc([N+](=O)[O-])cc1)CO2, the viability index was 1.02.
Cn1cnc(S(=O)(=O)Nc2ccccc2C(=O)NCC2CC2)c1 gave a viability index of 0.726.
Compound OC1CCCCC1C1(NC(=S)Nc2ccccc2)CCCCC1 (centres undefined) has a viability index of 1.08.
O=C(Nc1ccc(C23CC4CC(CC(c5ccccc5)(C4)C2)C3)cc1)c1cccs1 gave a viability index of 0.63.
O=C(Nc1ccc(-c2nc3ccc(NC(=O)c4cccc5ccccc45)cc3[nH]2)cc1)c1cccc2ccccc12 showed a viability index of 1.04.
In the case of COc1ccccc1Cc1nc2ccccc2nc1SCC(=O)Nc1cccc(C(F)(F)F)c1, the viability index is reported as 0.855.
For Cc1cc2c(cc1C)NC(c1ccc(Cl)c(F)c1)C1=C(CC(C)(C)CC1=O)N2 (centres undefined), the viability index was 0.547.
COc1ccc(CCNC(=O)c2cc(S(=O)(=O)N3CCC4(CC3)OCCO4)ccc2F)cc1OC gave a viability index of 1.17.
Compound COC(=O)C1=C(C(=O)OC)SC(=C2C(=S)C(C)(C)N(C(=O)c3ccc([N+](=O)[O-])cc3)c3ccc(C)cc32)S1 has a viability index of 0.706.
Cc1ccc(O)c(NC(=O)c2cnn3c(C(F)(F)F)cc(-c4ccc(Br)cc4)nc23)c1 gave a viability index of 0.816.
Work on CCN1CCN(c2cc(C)c3cc(NC(=O)C=Cc4cccc(Cl)c4)ccc3n2)CC1 yielded a viability index of 0.747.
Work on CCCCOc1ccc(C2C3CCCC=C3C(C#N)=C(N)C2(C#N)C#N)cc1 (centres undefined) yielded a viability index of 0.735.
For O=C1C(=Cc2ccccc2)SC(=Nc2ccccc2)N1C1CCCCC1, the viability index was 0.649.
For c1ccc(Cn2nnnc2CN2CCN(C(c3ccccc3)c3ccccc3)CC2)cc1, the viability index was 0.906.
